Drawing on PubChem BioAssay AID1745853 (National Center for Advancing Translational Sciences (NCATS), 2022), this text covers activity change, negative = inhibition for 39 compounds.

What all share (assay): Primary Screen for Target Class Profiling of Small Molecule Inhibitors of Methyltransferases
Assay [1] has as its target Glycine N-methyltransferase (Homo sapiens) (UniProt Q14749). Conditions: purified enzyme, MTase-Glo SAH luminescence; measured here: GNMT inhibition; at 40 µM; stronger effect = lower value. The method, boiled down:
(§1)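 Each enzyme was reacted with SAM and its substrate, with compounds tested once at 40 uM; SAH formed was read by MTase-Glo luminescence.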

The target in assay [2] is Guanidinoacetate N-methyltransferase (Homo sapiens) (UniProt Q14353). Conditions: purified enzyme, MTase-Glo SAH luminescence; measured here: GAMT inhibition; at 40 µM; stronger effect = lower value. The method, boiled down:
as §1

Assay [3] concerns the target Histamine N-methyltransferase (Homo sapiens) (UniProt P50135). As to conditions: purified enzyme, MTase-Glo SAH luminescence; measured here: HNMT inhibition; at 40 µM; stronger effect = lower value. Summed up:
as §1

Assay [4] deals with Nicotinamide N-methyltransferase (Homo sapiens) (UniProt P40261). Conditions: purified enzyme, MTase-Glo SAH luminescence; measured here: NNMT inhibition; at 40 µM; stronger effect = lower value. Summed up: as §1
The target of assay [5] is Phenylethanolamine N-methyltransferase (Homo sapiens) (UniProt P11086). Conditions: purified enzyme, MTase-Glo SAH luminescence; measured here: PNMT inhibition; at 40 µM; stronger effect = lower value. The method, boiled down:
as §1

Several values for one entry are separate records, joined by “and”; a condition that tells them apart may be missing. Equal values may be shown once. The list shows a part of the results. These are further read-outs of the screen, such as a control signal, another cell line or another target. No call is given for them.
% is scaled to controls: 0 for no effect and ±100 for the full control effect.

For the compound `CCc1ccc(NC(=O)N2Cc3ccccc3-n3cccc3C2C)cc1` (stereo not given), the activity change, negative = inhibition was -2.57% in assay [1]; 0.307% in assay [2]; -2.48% in assay [3]; -6.05% in assay [4]; -1.28% in assay [5].

Consider `CCOc1ccc(C2c3cccn3-c3ccccc3CN2C(=O)Nc2ccc(OC)c(OC)c2)cc1` (stereo not given), for which the activity change, negative = inhibition was -4.62% in assay [1]; 3.12% in assay [2]; 0.948% in assay [3]; -0.8% in assay [4]; -2.71% in assay [5].

Regarding `CCOC(=O)c1ncn2c1CN(C)C(=O)c1c(I)cccc1-2`, the activity change, negative = inhibition in assay [1] was 3.24%; in assay [2] it was -0.145%; in assay [3], 11.2%; in assay [4] it was -8.75%; in assay [5] it was 8.5%.

On to `COc1ccc(Cl)cc1NC(=O)N1Cc2ccccc2-n2cccc2C1c1ccc(F)cc1` (stereo not given), for which the activity change, negative = inhibition is -1.65% in assay [1]; 5.51% in assay [2]; 7.9% in assay [3]; 1.95% in assay [4]; 9.65% in assay [5].

`COc1cc(CCNCc2ccccc2O)c(OC)cc1C#N`: the activity change, negative = inhibition in assay [1] is -6.85%; in assay [2] it was -17.6%; in assay [3], -27.1%; in assay [4], -29.4%; in assay [5], -5.48%.

With `CC(C)CCNC(=O)N1Cc2ccccc2-n2cccc2C1c1cccc(Cl)c1` (stereo not given), the activity change, negative = inhibition stood at 13.6% in assay [1]; 6.38% in assay [2]; 5.84% in assay [3]; 6.17% in assay [4]; 9.95% in assay [5].

For the compound `CCCCC1C(=O)NC(=O)N(C2CCCCC2)C1=O` (stereo not given), the activity change, negative = inhibition in assay [1] is -2.19%; in assay [2], 4.56%; in assay [3], -1.13%; in assay [4], -15.1%; in assay [5], -5.61%.

Take `COC(=O)CCNC(=O)N1Cc2ccccc2-n2cccc2C1c1ccc(N(C)C)cc1` (stereo not given): the activity change, negative = inhibition worked out at 14.3% in assay [1]; 3.42% in assay [2]; 6.17% in assay [3]; 6.07% in assay [4]; 8.44% in assay [5].

Regarding `Oc1ccc2c3c1O[C@H]1c4oc5ccccc5c4C[C@@]4(O)C(C2)N(CC2CC2)CCC314` (stereo not given in full), the activity change, negative = inhibition in assay [1] is -7.68%; in assay [2] it was 1.43%; in assay [3], -5.28%; in assay [4] it was -14.2%; in assay [5], -3.88%.

As for `C=C(CO)C(=O)O[C@H]1CC(=C)[C@@H]2C[C@H](O)C(=C)[C@@H]2[C@H]2OC(=O)C(=C)[C@@H]21`, the activity change, negative = inhibition in assay [1] was 3.34%; in assay [2], -14.2%; in assay [3], 8.03%; in assay [4], -9.77%; in assay [5] it was 3.53%.

Take `CC(N)Cc1c[nH]c2ccccc12` (stereo not given): the activity change, negative = inhibition in assay [1] is -1.26%; in assay [2], 1.81%; in assay [3], -24.4%; in assay [4], -15.1%; in assay [5], -2.72%.

Turning to `COc1ccc(NC(=O)N2Cc3ccccc3-n3cccc3C2c2ccccc2)cc1OC` (stereo not given), the activity change, negative = inhibition in assay [1] was 4.44%; in assay [2] it was 0%; in assay [3], -4.58%; in assay [4], -2.2%; in assay [5], 1.22%.

`COC(=O)CCNC(=O)N1Cc2ccccc2-n2cccc2C1c1ccc(F)cc1` (stereo not given): the activity change, negative = inhibition in assay [1] was -1.51%; in assay [2], 1.38%; in assay [3], -0.476%; in assay [4] it was -1.97%; in assay [5] it was 2.48%.

`O=C(Cc1ccc(Cl)cc1)N1CCN(C2CCN(Cc3ccccn3)C2=O)CC1` (stereo not given): the activity change, negative = inhibition in assay [1] was -4.04%; in assay [2], -6.43%; in assay [3], -0.825%; in assay [4], -4.3%; in assay [5], -7.68%.

With `CCCc1nc(C)cc(N2CCC3(CC2)CNC(C(=O)O)C3)n1` (stereo not given), the activity change, negative = inhibition in assay [1] was -6.46%; in assay [2] it was -5.93%; in assay [3], -10%; in assay [4], 2.45%; in assay [5], -8.29%.

In the case of `C=C1C2(C)CC3C(C)(O)C4=CC(=O)OC(C)(C)C4=CCC3(C)C13C(=O)OC(C)C3(O)C2=O` (stereo not given), the activity change, negative = inhibition in assay [1] was -1.11%; in assay [2] it was -10.1%; in assay [3], 2.45%; in assay [4] it was -19.4%; in assay [5], -6.33%.

As to `CCN1CC2(COC)C3[C@@H](OC)C4C1C3(C1C[C@]3(O)[C@H](OC(=O)c5ccccc5)C1[C@]4(OC(C)=O)[C@@H](O)[C@@H]3OC)[C@H](OC)C[C@H]2O` (stereo not given in full), the activity change, negative = inhibition in assay [1] was 4.33%; in assay [2], 9.89%; in assay [3], 7.17%; in assay [4] it was -5.77%; in assay [5], 3.96%.

For `O=C(Nc1ccccc1F)N1Cc2ccccc2-n2cccc2C1c1ccccc1` (stereo not given), the activity change, negative = inhibition is 4.62% in assay [1]; 4.9% in assay [2]; 4.65% in assay [3]; -2% in assay [4]; -9.57% in assay [5].

On to `CN(C)CC(=O)Nc1ccc2n(c1=O)C[C@H]1C[C@@H]2CN(C(=O)c2cccnc2)C1`, for which the activity change, negative = inhibition in assay [1] was -3.78%; in assay [2], -10.3%; in assay [3], -3.88%; in assay [4] it was -10.8%; in assay [5] it was -6.18%.

`CS(=O)(=O)N1C[C@H]2CCN(Cc3ccncc3F)C[C@H]21`: the activity change, negative = inhibition in assay [1] is 1.31%; in assay [2], -1.67%; in assay [3], 2.7%; in assay [4], -3.07%; in assay [5] it was -7.68%.

`C/C=C(/C)C1C=CC2CC(C)CC(C)C2C1/C(O)=C1\C(=O)NC(CC(C)(O)C(=O)O)C1=O` (stereo not given): the activity change, negative = inhibition in assay [1] is 4.69%; in assay [2] it was 8.04%; in assay [3], 6.11%; in assay [4] it was -5.4%; in assay [5] it was 5.32%.

Regarding `Cc1sc2c(c1C)C(c1ccc(Cl)cc1)=N[C@@H](CC(=O)Nc1ccc(O)cc1)c1nnc(C)n1-2`, the activity change, negative = inhibition in assay [1] is -7.92% and -30.9%; in assay [2], -8.9% and 7.51%; in assay [3], 2.8% and -9.91%; in assay [4] it was -25.6% and -39.8% and -47%; in assay [5], -2.27% and 28.4% and 1.27%.

For the compound `CC1c2cccn2-c2ccccc2CN1C(=O)Nc1cccc2c1CCCC2` (stereo not given), the activity change, negative = inhibition in assay [1] was 6.02%; in assay [2] it was 3.98%; in assay [3], -2.03%; in assay [4], -5.29%; in assay [5] it was 0.885%.

In the case of `CCc1c(C(=O)C(N)=O)c2c(OCC(=O)O)cccc2n1Cc1ccccc1`, the activity change, negative = inhibition is -0.801% in assay [1]; -15.1% in assay [2]; -3.1% in assay [3]; -23.5% in assay [4]; -16.2% in assay [5].

With `Cc1[nH]nc2ccc(-c3cncc(OC[C@@H](N)Cc4c[nH]c5ccccc45)c3)cc12`, the activity change, negative = inhibition is -25.1% in assay [1]; 3.17% in assay [2]; -50.5% in assay [3]; -48.5% in assay [4]; -21.1% in assay [5].

`CC(=O)O[C@H]1C[C@@H](C)O[C@H]2O[C@@H]3CC4CC[C@@H]5C(CC[C@]6(C)[C@@H](C7=CC(=O)OC7)CC[C@]56O)[C@@]4(C=O)C[C@H]3O[C@]21O` (stereo not given in full): the activity change, negative = inhibition in assay [1] is 2.15%; in assay [2], 4.27%; in assay [3] it was 5.39%; in assay [4], -8.31%; in assay [5], 0.116%.

Regarding `Cc1ccccc1NC(=O)N1Cc2ccccc2-n2cccc2C1C` (stereo not given), the activity change, negative = inhibition in assay [1] was 5.64%; in assay [2], 0%; in assay [3] it was -0.69%; in assay [4], 1.16%; in assay [5], 6.22%.

For the compound `CSc1ccc(C2c3cccn3-c3ccccc3CN2C(=O)Nc2cccc(Cl)c2C)cc1` (stereo not given), the activity change, negative = inhibition came out at 0.147% in assay [1]; 1.23% in assay [2]; 3.23% in assay [3]; 0.735% in assay [4]; 4.9% in assay [5].

For the compound `N#CC1(c2ccccc2)CCN(C(=O)c2cn(-c3ccccc3)nn2)CC1`, the activity change, negative = inhibition in assay [1] was -7.94%; in assay [2], -5.18%; in assay [3] it was -3.41%; in assay [4], -11%; in assay [5], -7.7%.

As to `Cc1cccc(NC(=O)N2Cc3ccccc3-n3cccc3C2c2ccccc2)c1C` (stereo not given), the activity change, negative = inhibition in assay [1] was 6.88%; in assay [2], 0%; in assay [3], -2.09%; in assay [4], 0.636%; in assay [5], 5.09%.

On to `CNCc1cn(C[C@H]2CC3CCN2C[C@@H]3C(=O)Nc2ccccc2)nn1` (stereo not given in full), for which the activity change, negative = inhibition is -7.97% in assay [1]; -7.47% in assay [2]; -5.29% in assay [3]; -10.1% in assay [4]; -2.55% in assay [5].

With `Cc1ccc(CNC(=O)N2Cc3ccccc3-n3cccc3C2c2ccccc2)cc1` (stereo not given), the activity change, negative = inhibition came to 8.73% in assay [1]; 0% in assay [2]; 0.488% in assay [3]; 3.41% in assay [4]; 6.47% in assay [5].

Take `Clc1ccc(OCC2=NCCN2)cc1Cl`: the activity change, negative = inhibition in assay [1] was 3.76%; in assay [2], 6.01%; in assay [3], 1.18%; in assay [4], -11.1%; in assay [5] it was -10.4%.

Regarding `Cc1o[nH]c(=O)c1CC(N)C(=O)O` (stereo not given), the activity change, negative = inhibition in assay [1] was -1.19%; in assay [2] it was 7.88%; in assay [3], 5.62%; in assay [4], -6.56%; in assay [5] it was 0.706%.

With `CCOc1ccc(C2c3cccn3-c3ccccc3CN2C(=O)Nc2ccccc2C(F)(F)F)cc1` (stereo not given), the activity change, negative = inhibition in assay [1] was -1.1%; in assay [2], 0%; in assay [3] it was 6.46%; in assay [4], 11.3%; in assay [5], 8.68%.

Take `COc1ccc(C2c3cccn3-c3ccccc3CN2C(=O)Nc2cc(F)ccc2F)cc1OC` (stereo not given): the activity change, negative = inhibition in assay [1] is 6.89%; in assay [2], 4.33%; in assay [3], 1.46%; in assay [4], -5.41%; in assay [5], 2.4%.

Turning to `Cc1ccc(NC(=O)N2Cc3ccccc3-n3cccc3C2c2ccccc2Cl)c(C)c1` (stereo not given), the activity change, negative = inhibition in assay [1] was 2.89%; in assay [2], -0.816%; in assay [3], -7.56%; in assay [4], -1.11%; in assay [5], -0.881%.

Regarding `COc1ccc(C2c3cccn3-c3ccccc3CN2C(=O)Nc2ccccc2C)cc1` (stereo not given), the activity change, negative = inhibition was -5.23% in assay [1]; 0.384% in assay [2]; 2.9% in assay [3]; 1.94% in assay [4]; 6.88% in assay [5].

For the compound `CC1=CC2OC3[C@H](O)C[C@@](C)([C@]34CO4)[C@@]2(CO)[C@H](O)C1=O` (stereo not given in full), the activity change, negative = inhibition in assay [1] was 2.59%; in assay [2], -8.62%; in assay [3], 0.815%; in assay [4], -17.9%; in assay [5], 0.125%.
